Where a chain is given by its changes, count along the chain named. The list shows a part of the results.
T1: RBFOX1 RRM RbFoxmut (Fox-RRM*) (Homo sapiens, UniProt Q9NWB1 109-208, R118D;E147R;N151S;E152T)
T1 sequence: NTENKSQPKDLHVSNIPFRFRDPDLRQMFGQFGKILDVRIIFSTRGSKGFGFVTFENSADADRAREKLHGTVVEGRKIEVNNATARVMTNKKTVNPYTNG

B1: GUACCUC (DNA:RNA)
RNA: GGGAGACCGGAAUUCAGAUUGUCCGUACCUCUUAAAUCCCGUCGUAGCCACCA
DNA 1: CAATCTGAATTCCGGTCTCCC
DNA 2: TGGTGGCTACGACGGGATT
B2: AUUGACC (DNA:RNA)
RNA: B1 RNA with G25A, A27U, C28G, C29A, U30C
DNA 1: CAATCTGAATTCCGGTCTCCC
DNA 2: TGGTGGCTACGACGGGATT
B3: AUGCUGU (DNA:RNA)
RNA: B1 RNA with G25A, A27G, C29U, U30G, C31U
DNA 1: CAATCTGAATTCCGGTCTCCC
DNA 2: TGGTGGCTACGACGGGATT
B4: CCCCUUG (DNA:RNA)
RNA: B1 RNA with G25C, U26C, A27C, C29U, C31G
DNA 1: CAATCTGAATTCCGGTCTCCC
DNA 2: TGGTGGCTACGACGGGATT
B5: ACGAAUC (DNA:RNA)
RNA: B1 RNA with G25A, U26C, A27G, C28A, C29A
DNA 1: CAATCTGAATTCCGGTCTCCC
DNA 2: TGGTGGCTACGACGGGATT
B6: AUCCUUA (DNA:RNA)
RNA: B1 RNA with G25A, A27C, C29U, C31A
DNA 1: CAATCTGAATTCCGGTCTCCC
DNA 2: TGGTGGCTACGACGGGATT
B7: ACCUAUG (DNA:RNA)
RNA: B1 RNA with G25A, U26C, A27C, C28U, C29A, C31G
DNA 1: CAATCTGAATTCCGGTCTCCC
DNA 2: TGGTGGCTACGACGGGATT
B8: UAUACGG (DNA:RNA)
RNA: B1 RNA with G25U, U26A, A27U, C28A, U30G, C31G
DNA 1: CAATCTGAATTCCGGTCTCCC
DNA 2: TGGTGGCTACGACGGGATT
B9: GGACGCC (DNA:RNA)
RNA: B1 RNA with U26G, C29G, U30C
DNA 1: CAATCTGAATTCCGGTCTCCC
DNA 2: TGGTGGCTACGACGGGATT
B10: UCAAUCG (DNA:RNA)
RNA: B1 RNA with G25U, U26C, C28A, C29U, U30C, C31G
DNA 1: CAATCTGAATTCCGGTCTCCC
DNA 2: TGGTGGCTACGACGGGATT
B11: UUGGCUC (DNA:RNA)
RNA: B1 RNA with G25U, A27G, C28G
DNA 1: CAATCTGAATTCCGGTCTCCC
DNA 2: TGGTGGCTACGACGGGATT
B12: CCCAGUA (DNA:RNA)
RNA: B1 RNA with G25C, U26C, A27C, C28A, C29G, C31A
DNA 1: CAATCTGAATTCCGGTCTCCC
DNA 2: TGGTGGCTACGACGGGATT
B13: CGCCGAU (DNA:RNA)
RNA: B1 RNA with G25C, U26G, A27C, C29G, U30A, C31U
DNA 1: CAATCTGAATTCCGGTCTCCC
DNA 2: TGGTGGCTACGACGGGATT
B14: GUCGAAA (DNA:RNA)
RNA: B1 RNA with A27C, C28G, C29A, U30A, C31A
DNA 1: CAATCTGAATTCCGGTCTCCC
DNA 2: TGGTGGCTACGACGGGATT
B15: UGGCUCA (DNA:RNA)
RNA: B1 RNA with G25U, U26G, A27G, C29U, U30C, C31A
DNA 1: CAATCTGAATTCCGGTCTCCC
DNA 2: TGGTGGCTACGACGGGATT
B16: GUGAGCC (DNA:RNA)
RNA: B1 RNA with A27G, C28A, C29G, U30C
DNA 1: CAATCTGAATTCCGGTCTCCC
DNA 2: TGGTGGCTACGACGGGATT
B17: CUGCAAA (DNA:RNA)
RNA: B1 RNA with G25C, A27G, C29A, U30A, C31A
DNA 1: CAATCTGAATTCCGGTCTCCC
DNA 2: TGGTGGCTACGACGGGATT
B18: AACAAAA (DNA:RNA)
RNA: GGGAGACCGGAAUUCAGAUUGUCCAACAAAAUUAAAUCCCGUCGUAGCCACCA
DNA 1: CAATCTGAATTCCGGTCTCCC
DNA 2: TGGTGGCTACGACGGGATT
B19: GAUUCCG (DNA:RNA)
RNA: B1 RNA with U26A, A27U, C28U, U30C, C31G
DNA 1: CAATCTGAATTCCGGTCTCCC
DNA 2: TGGTGGCTACGACGGGATT
B20: CCCCGUU (DNA:RNA)
RNA: B1 RNA with G25C, U26C, A27C, C29G, C31U
DNA 1: CAATCTGAATTCCGGTCTCCC
DNA 2: TGGTGGCTACGACGGGATT
B21: CCACGUU (DNA:RNA)
RNA: B1 RNA with G25C, U26C, C29G, C31U
DNA 1: CAATCTGAATTCCGGTCTCCC
DNA 2: TGGTGGCTACGACGGGATT
B22: GAGCUUU (DNA:RNA)
RNA: B1 RNA with U26A, A27G, C29U, C31U
DNA 1: CAATCTGAATTCCGGTCTCCC
DNA 2: TGGTGGCTACGACGGGATT
B23: CUGGCUA (DNA:RNA)
RNA: B1 RNA with G25C, A27G, C28G, C31A
DNA 1: CAATCTGAATTCCGGTCTCCC
DNA 2: TGGTGGCTACGACGGGATT
B24: AGAACUC (DNA:RNA)
RNA: B1 RNA with G25A, U26G, C28A
DNA 1: CAATCTGAATTCCGGTCTCCC
DNA 2: TGGTGGCTACGACGGGATT
B25: AGUUUAG (DNA:RNA)
RNA: B18 RNA with A26G, C27U, A28U, A29U, A31G
DNA 1: CAATCTGAATTCCGGTCTCCC
DNA 2: TGGTGGCTACGACGGGATT
B26: AUAAGCA (DNA:RNA)
RNA: B18 RNA with A26U, C27A, A29G, A30C
DNA 1: CAATCTGAATTCCGGTCTCCC
DNA 2: TGGTGGCTACGACGGGATT
B27: CAAUAUG (DNA:RNA)
RNA: B18 RNA with A25C, C27A, A28U, A30U, A31G
DNA 1: CAATCTGAATTCCGGTCTCCC
DNA 2: TGGTGGCTACGACGGGATT
B28: UUCCUAU (DNA:RNA)
RNA: B18 RNA with A25U, A26U, A28C, A29U, A31U
DNA 1: CAATCTGAATTCCGGTCTCCC
DNA 2: TGGTGGCTACGACGGGATT
B29: GAAAGAU (DNA:RNA)
RNA: B18 RNA with A25G, C27A, A29G, A31U
DNA 1: CAATCTGAATTCCGGTCTCCC
DNA 2: TGGTGGCTACGACGGGATT
B30: AAAGUUG (DNA:RNA)
RNA: B18 RNA with C27A, A28G, A29U, A30U, A31G
DNA 1: CAATCTGAATTCCGGTCTCCC
DNA 2: TGGTGGCTACGACGGGATT
B31: CAGGGCC (DNA:RNA)
RNA: B18 RNA with A25C, C27G, A28G, A29G, A30C, A31C
DNA 1: CAATCTGAATTCCGGTCTCCC
DNA 2: TGGTGGCTACGACGGGATT

Target: T1, RBFOX1 RRM RbFoxmut (Fox-RRM*)
Assay: EMSA; HiTS-Eq, 1 nM pool, 10 min; buffer printed only for the single-RNA assays: 10 mM Tris pH 7.5, 150 mM NaCl, 3.4 mM EDTA, 0.001% NP-40, 30 C
Conditions: tags: His6 N-terminal (pET28a); label: 5' 32P
How it was run: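 Purified RbFox RRM, wild type or mutant, was incubated for 10 min in 50 µL with 1 nM of a 5′-radiolabelled RNA pool carrying 7 randomized nucleotides, whose flanks were annealed to DNA oligonucleotides, over a series of increasing protein concentrations. Unbound RNA was resolved on 8% native PAGE, cut out, reverse-transcribed, barcoded by PCR and sequenced on an Illumina HiSeq 2500. Relative association constants were derived from changes in read counts for each RNA species versus the control reaction and normalised to the cognate motif.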

| Binder | binding signal |
| --- | --- |
| B1 | 0.0709 KA relative to UGCAUGU |
| B2 | 0.0927 KA relative to UGCAUGU |
| B3 | 0.144 KA relative to UGCAUGU |
| B4 | 0.0766 KA relative to UGCAUGU |
| B5 | 0.283 KA relative to UGCAUGU |
| B6 | 0.136 KA relative to UGCAUGU |
| B7 | 0.118 KA relative to UGCAUGU |
| B8 | 0.0925 KA relative to UGCAUGU |
| B9 | 0.0969 KA relative to UGCAUGU |
| B10 | 0.0683 KA relative to UGCAUGU |
| B11 | 0.134 KA relative to UGCAUGU |
| B12 | 0.116 KA relative to UGCAUGU |
| B13 | 0.0698 KA relative to UGCAUGU |
| B14 | 0.0811 KA relative to UGCAUGU |
| B15 | 0.129 KA relative to UGCAUGU |
| B16 | 0.186 KA relative to UGCAUGU |

| Binder | binding signal |
| --- | --- |
| B17 | 0.0786 KA relative to UGCAUGU |
| B18 | 0.0739 KA relative to UGCAUGU |
| B19 | 0.0895 KA relative to UGCAUGU |
| B20 | 0.0828 KA relative to UGCAUGU |
| B21 | 0.0948 KA relative to UGCAUGU |
| B22 | 0.0736 KA relative to UGCAUGU |
| B23 | 0.0967 KA relative to UGCAUGU |
| B24 | 0.0766 KA relative to UGCAUGU |
| B25 | 0.119 KA relative to UGCAUGU |
| B26 | 0.139 KA relative to UGCAUGU |
| B27 | 0.1 KA relative to UGCAUGU |
| B28 | 0.0853 KA relative to UGCAUGU |
| B29 | 0.0931 KA relative to UGCAUGU |
| B30 | 0.113 KA relative to UGCAUGU |
| B31 | 0.177 KA relative to UGCAUGU |

— PMC9911399, “Two distinct binding modes provide the RNA-binding protein RbFox with extraordinary sequence specificity”
